Test results published in PubChem BioAssay AID686979 (National Center for Advancing Translational Sciences (NCATS), 2013).
The campaign covered roughly 420,000 compounds. About 50,000 (12%) were called active. The inconclusive results got no clear call from the source; some entries with a clear call stand among them for comparison. The call rests on the fitted dose curve; in most records, active means well fitted inhibition curve with a large enough effect; inconclusive means small, poorly fitted or top-dose-only effect; inactive means flat fitted curve, though single readings scatter. No potency is given beside an inconclusive call; the fits are too rough.
On the % scale 0 is the no-effect control and ±100 the full control effect; potency means the concentration at half of the fitted maximal effect; tags describe the fitted curve by direction and shape.

Test: qHTS for Inhibitors of human tyrosyl-DNA phosphodiesterase 1 (TDP1): qHTS in cells in presence of CPT; further: nearly all actives have a fitted effect of over 55% in size
Details: chicken DT40 Tdp1-/-;hTDP1 cells + 20 nM CPT, ATP luminescence, 48 h; activity change, negative = growth inhibition: at 46.2 µM (top of the series) unless noted
In short: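 Chicken DT40 Tdp1-/- cells stably complemented with human TDP1 were seeded at 400 cells/well in medium containing 20 nM camptothecin, exposed to pin-transferred compounds, and grown at 37 °C for at least 48 hr. Viability was read as ATP luminescence.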
In the case of O=c1[nH]c(=S)[nH]cc1Oc1ccc(Br)cc1Br, the “activity change, negative = growth inhibition” value was inactive: -14.4%.
In the case of O=C(Nc1ccc(Cl)cc1Cl)c1ccc2ncsc2c1, the “activity change, negative = growth inhibition” value was inactive: -22.2%.
With Cc1c(OCC(=O)N2CCC(C(N)=O)CC2)ccc2c1oc(=O)c1ccccc12 the Potency was inconclusive [inhibitor, single point].
For Oc1ccc(C(=S)N2CCN(Cc3ccccc3)CC2)cc1, the Potency was inconclusive [inhibitor, single point].
For Cc1noc(C)c1S(=O)(=O)Nc1ccc(C(=O)N2CCN(c3ccc(F)cc3)CC2)cc1, the Potency was inconclusive [inhibitor, single point].
For Cc1cccc(N(C)C(=O)C2CCC(CNS(=O)(=O)c3cccc4nsnc34)CC2)c1 (configuration not stated), the Potency was inconclusive [inhibitor, single point].
For COc1cc(NS(=O)(=O)c2cc(Br)cc3c2N(C(C)=O)C(C)C3)cc(OC)c1 (configuration not stated), the Potency was active: 13 µM.
In the case of O=C(NC1CCCCC1)c1ccc2c(c1)N(Cc1ccc(F)cc1)C(=O)c1ccccc1S2(=O)=O, the “activity change, negative = growth inhibition” value was inactive: -27.2%.
For N#CC1=C(N)N(c2ccc(Cl)cc2)C2=C(C(=O)CCC2)C1c1cc(CN2CCOCC2)cs1 (configuration not stated), the Potency was inconclusive [inhibitor, single point].
In the case of CCOC(=O)c1c(NC(=O)CN2C(=O)C(=O)N(C(C)C)C2=O)sc(C)c1CC, the Potency was inconclusive [inhibitor, single point].
In the case of CCN1C(=O)[C@@H]2[C@@H](c3ccc(-c4cccc(Cl)c4)cc3)N3CCC[C@@]3(C(=O)OC)[C@@H]2C1=O, the Potency was active: 14.6 µM.
In the case of CC(=O)c1ccccc1C(=O)N1CCCC(N2CCN(Cc3ccc4c(c3)OCO4)CC2)C1 (configuration not stated), the “activity change, negative = growth inhibition” value was inactive: -7.14%.
In the case of O=C(O)c1ccccc1C(=O)N1CC=C(c2ccccc2)CC1, the Potency was inconclusive [inhibitor, single point].
In the case of CCc1ccc2oc(C(=O)NCc3ccncc3)c(C)c2c1, the Potency was active: 18.4 µM.
With COc1cccc(CNC(=O)Cn2c(=O)cc(C)c3c(C)nn(C)c32)c1OC the Potency was active: 23.1 µM.
With CCN(c1ccc(F)cc1)S(=O)(=O)c1cccc2nsnc12 the “activity change, negative = growth inhibition” value was inactive: -12.2%.
For O=C(NNC(=S)NC(=O)c1ccccc1[N+](=O)[O-])c1ccccc1O, the Potency was inconclusive [inhibitor, single point].
With COc1ccc(CCNC(=O)CCn2c(SCC(=O)N3CCCC3)nc3ccccc3c2=O)cc1OC the Potency was inconclusive [inhibitor, single point].
For Cc1cc(C(=O)NNS(=O)(=O)c2cc(C(=O)O)ccc2Cl)c(C)n1-c1ccccc1, the Potency was inconclusive [inhibitor, partial curve].
With COc1cc(C(C)=O)ccc1COc1ccc(C(=O)OCC(=O)NC(C)(C)C)cc1OC the Potency was inconclusive [inhibitor, single point].
In the case of O=C(NCc1ccccc1)c1cc(C2COCCN2S(=O)(=O)c2ccccc2)on1 (configuration not stated), the “activity change, negative = growth inhibition” value was inactive: 3.55%.
With CC(=O)Nc1cccc(-c2csc(Nc3ccccn3)n2)c1 the Potency was inconclusive [inhibitor, partial curve, poor fit].
For Oc1ccc(C2=NN(c3ccccc3)C(c3ccc(F)cc3)C2)cc1 (configuration not stated), the Potency was inconclusive [inhibitor, single point].
In the case of CCN(CC)C(=O)c1sc2c(c1C)c(=O)n(-c1ccccc1)c(=O)n2CC(=O)N(CC)c1cccc(C)c1, the Potency was inconclusive [inhibitor, single point].
For O=C1CC(N(O)c2ccccc2)C(=O)N1c1cc(Cl)cc(Cl)c1 (configuration not stated), the Potency was inconclusive [inhibitor, partial curve, poor fit].
With Cc1ccc(CSc2nnc(SCC(=O)N/N=C/c3c[nH]c4ccccc34)s2)cc1 the Potency was inconclusive [inhibitor, full curve].
For CCCC(O)(c1ccc(OC)cc1)C(CN1CCOCC1)c1ccccc1 (configuration not stated), the Potency was inconclusive [inhibitor, single point].
With O=C(Nc1cccc(F)c1)C1CCN(S(=O)(=O)c2cccc3nonc23)CC1 the Potency was inconclusive [inhibitor, single point].
For O=c1ccc(=O)n(-c2ccccc2)[nH]1, the Potency was active: 16.4 µM.
With Clc1ccc(C2=NNC(=NCc3ccccc3)SC2)cc1 the Potency was inconclusive [inhibitor, single point].
In the case of CC(C)OCCCNC(=O)CN1C(=O)/C(=C/c2ccccc2)Sc2ccccc21, the Potency was inconclusive [inhibitor, single point].
In the case of CCOC(=O)c1ccc(NC(=O)Nc2cc(C)on2)cc1, the “activity change, negative = growth inhibition” value was inactive: -29.3%.
For [O-][N+](=Cc1ccccc1)CC1(O)CCCCC1, the “activity change, negative = growth inhibition” value was inactive: -0.155%.
With Cc1cccc(NC(=O)C2CCN(C(=O)c3ccc(Cl)cc3)CC2)n1 the “activity change, negative = growth inhibition” value was inactive: 9.66%.
For CCCOc1ccc(C(=O)N(Cc2ccc(Cl)cc2)Cc2ccco2)cc1, the Potency was inconclusive [inhibitor, single point].
In the case of O=C(Nc1ccc2c(c1)C(=O)OC2)c1ccccc1Cl, the “activity change, negative = growth inhibition” value was inactive: 20.6%.
For O=C(NCC(=O)N1CCCC1)c1ccc(Br)o1, the “activity change, negative = growth inhibition” value was inactive: -2.94%.
For CCCCN(C)C(=O)CN1C(=O)c2cccnc2Oc2ccc(Cl)cc21, the “activity change, negative = growth inhibition” value was inactive: -27.1%.
In the case of CCCCNC(=O)c1onc(CSc2cc(C)ccc2C)c1C(=O)O, the “activity change, negative = growth inhibition” value was inactive: -6.95%.
In the case of Cc1ccc(S(=O)(=O)N2CCOCC2)cc1NC(=O)COC(=O)c1cc(=O)c2ccccc2o1, the “activity change, negative = growth inhibition” value was inactive: 19.2%.
In the case of CN(C(=O)CSc1nncn2c1cc1occc12)c1ccccc1, the Potency was inconclusive [inhibitor, single point].
In the case of CC12CC(NC(=O)N1c1cccc(C(=O)N3CCN(c4ccccn4)CC3)c1)c1ccccc1O2 (configuration not stated), the Potency was inconclusive [inhibitor, single point].
In the case of CCOC(=O)c1ccc(Oc2c(C)oc3cc(OS(C)(=O)=O)ccc3c2=O)cc1, the Potency was active: 16.4 µM.
For CC(CCc1ccc2c(c1)OCO2)NN (configuration not stated), the “activity change, negative = growth inhibition” value was inactive: 14%.
For CCOc1cccc(-c2nn3c(-c4ccco4)nnc3s2)c1, the Potency was inconclusive [inhibitor, single point].
In the case of COc1ccccc1NC(=O)c1cc(C)nc2ccccc12, the “activity change, negative = growth inhibition” value was inactive: -26.4%.
In the case of CC(C)(C)c1ccc(OCCC(=O)Nc2cccc(S(=O)(=O)N3CCOCC3)c2)cc1, the Potency was inconclusive [inhibitor, single point].
